According to the supplement of paper PMC12217912:
The list shows a part of the results. Sequences were assembled here from the parent chain. Inactive controls read about 0.05.

B1: TEV protease; numbered along this chain (parent)
chain: MGESLFKGPRDYNPISSSICHLTNESDGHTTSLYGIGFGPFIITNKHLFRRNNGTLVVQSLHGVFKVKDTTTLQQHLVDGRDMIIIRMPKDFPPFPQKLKFREPQREERICLVTTNFQTKSMSSMVSDTSCTFPSGDGIFWKHWIQTKDGQCGSPLVSTRDGFIVGIHSASNFTNTNNYFTSVPKNFMELLTNQEAQQWVSGWRLNADSVLWGGHKVFMVKPEEPFQPVKEATQL

Variants of: B1
Assay: raw area under fraction-flipped curve 0-4 h after induction (AUC4h, not background-subtracted), DNA-recorder readout of cleavage of the substrate (dimensionless); higher = more cleavage of the substrate by the protease variant
Settings: temperature: 34 °C; time window: 0-4 h after rhamnose induction
Method: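 In vivo DNA recorder in E. coli TOP10(DE3) ΔrhaA at 34 °C. Each TEVp single-site mutant (parent TEVp 0) is paired with a single-site variant of the 7-mer TEVs (canonical ENLYFQ|S). The substrate sits between flexible linkers in a Bxb1-sfGFP-TEVs-SsrA fusion, so cleavage stabilises Bxb1 and speeds flipping of a recombination array, read by NGS. The value is the raw area under the fraction-flipped curve over 0-4 h after rhamnose induction (AUC4h), with ≥20 reads per time point. It is not background-subtracted; inactive controls average about 0.047.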
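Also: Bxb1 expression induced with 0.2% (w/v) L-rhamnose at OD600 near 0.5, cultures sampled hourly, flipped fraction per protease–substrate barcode pair counted by paired-end Illumina sequencing.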

Row | Variant | area with substrate CNLYFQS | area with substrate DNLYFQS | area with substrate HNLYFQS | area with substrate INLYFQS | area with substrate QNLYFQS | area with substrate WNLYFQS | area with substrate FNLYFQS | area with substrate GNLYFQS | area with substrate LNLYFQS | area with substrate NNLYFQS | area with substrate PNLYFQS | area with substrate RNLYFQS | area with substrate SNLYFQS | area with substrate TNLYFQS | area with substrate KNLYFQS | area with substrate MNLYFQS | area with substrate YNLYFQS | area with substrate VNLYFQS
1 | A170T | 0.0466 | 0.0529 | 0.0589 | 0.0448 | 0.0612 | 0.0382 | – | – | – | – | – | – | – | – | – | – | – | –
2 | E195A | 0.0652 | 0.0867 | 0.0521 | 0.0488 | – | 0.0626 | 0.0617 | 0.0632 | 0.0582 | 0.1 | 0.0622 | 0.0685 | 0.0715 | 0.0806 | – | – | – | –
3 | K68Y | 0.0575 | 0.072 | 0.06 | – | – | – | 0.0508 | – | – | 0.0597 | 0.073 | – | 0.0644 | 0.0659 | 0.0721 | 0.0634 | – | –
4 | P222I | 0.0772 | 0.0835 | 0.0567 | 0.0666 | – | – | – | – | 0.0596 | 0.0663 | 0.0582 | – | 0.0941 | 0.056 | 0.0631 | 0.0562 | 0.0557 | –
5 | G214D | 0.051 | 0.0552 | 0.0717 | 0.0627 | – | 0.0459 | – | 0.0454 | 0.0348 | 0.0562 | 0.058 | – | 0.0893 | 0.054 | – | – | – | 0.0561
6 | P14K | 0.0701 | 0.0774 | 0.0606 | 0.0583 | – | 0.0731 | – | 0.0584 | 0.0707 | 0.0625 | 0.0437 | – | – | 0.0594 | 0.0637 | 0.0668 | – | –
7 | G166W | 0.0478 | 0.0551 | 0.0443 | 0.0515 | – | – | – | – | – | 0.041 | 0.0372 | – | 0.0615 | 0.0509 | – | 0.0462 | – | 0.0545
8 | I85Y | 0.0625 | 0.0521 | – | – | – | 0.0538 | – | 0.0671 | 0.0555 | 0.0573 | 0.0538 | 0.0497 | – | 0.0581 | 0.0733 | 0.0524 | 0.0432 | 0.0678
9 | T30R | 0.0507 | 0.0803 | 0.0695 | – | 0.0962 | 0.051 | 0.0695 | – | 0.038 | 0.0738 | 0.076 | – | 0.0674 | 0.0653 | – | 0.0689 | – | –
10 | F173E | 0.0581 | 0.127 | 0.06 | 0.0531 | – | 0.0617 | 0.0487 | – | – | – | 0.059 | – | – | 0.0758 | 0.0709 | – | – | –
11 | S130V | 0.0691 | 0.0842 | 0.0813 | 0.0589 | – | 0.0367 | 0.0737 | 0.0704 | 0.0566 | 0.0789 | 0.0663 | – | – | 0.0847 | 0.0602 | 0.0605 | 0.0699 | –
12 | S127L | 0.0692 | 0.0842 | 0.0543 | – | – | – | – | 0.0609 | – | – | – | – | 0.0711 | 0.0752 | – | – | – | –
13 | W199F | 0.0694 | 0.0572 | 0.0535 | 0.0602 | – | 0.0658 | 0.0579 | – | 0.0609 | 0.0552 | – | – | – | 0.0608 | 0.0541 | – | 0.0557 | 0.0616
14 | R204G | 0.069 | 0.0803 | – | 0.064 | – | 0.0649 | 0.0555 | 0.069 | 0.0646 | 0.0534 | 0.0794 | 0.0703 | 0.0753 | 0.0881 | – | 0.0436 | 0.0636 | –
15 | F187R | 0.0513 | 0.071 | 0.0487 | – | – | 0.0434 | – | 0.0382 | 0.0634 | 0.0462 | 0.0521 | – | 0.049 | 0.0446 | – | 0.0497 | – | 0.0406
16 | F187D | 0.0454 | 0.0687 | 0.0545 | – | – | 0.0567 | 0.0515 | 0.0474 | 0.0538 | – | 0.0498 | – | – | 0.0549 | 0.0609 | – | 0.0575 | –
17 | F187Y | 0.0653 | 0.0614 | 0.059 | 0.0535 | 0.057 | 0.0591 | 0.0469 | – | – | 0.0669 | 0.0681 | – | 0.0728 | 0.0472 | 0.0727 | – | 0.0615 | –
18 | V183W | 0.0567 | 0.0765 | 0.0607 | 0.0517 | 0.0378 | 0.0695 | 0.0546 | 0.0529 | – | 0.0587 | 0.0574 | – | 0.0593 | 0.0572 | 0.0556 | 0.0533 | 0.0544 | –
19 | V183A | 0.0598 | 0.0615 | 0.0411 | 0.0463 | 0.0331 | 0.0646 | 0.0531 | – | 0.0606 | 0.0802 | 0.0723 | – | – | – | 0.0592 | 0.0621 | – | 0.0573
20 | P184F | 0.0465 | 0.055 | 0.0608 | 0.0568 | – | 0.0508 | 0.0284 | – | – | 0.0552 | 0.0696 | – | 0.0952 | 0.056 | 0.0449 | 0.0554 | 0.0494 | 0.0616
21 | R109L | 0.0696 | 0.0724 | 0.0615 | 0.0632 | – | 0.0558 | 0.0594 | – | 0.0617 | 0.0514 | 0.0654 | 0.0609 | 0.0641 | 0.0646 | – | 0.0614 | 0.0741 | –
22 | F41Q | 0.081 | 0.0682 | 0.0411 | 0.05 | – | 0.0541 | – | 0.0604 | 0.0412 | 0.0512 | 0.0404 | – | – | 0.0618 | 0.0545 | 0.0504 | 0.0481 | –
23 | P94W | 0.0706 | 0.082 | 0.0724 | – | – | 0.0648 | 0.0712 | – | 0.0617 | – | 0.0575 | – | – | 0.067 | 0.0682 | – | – | –
24 | T23K | 0.0647 | 0.0797 | 0.0794 | 0.0599 | – | 0.0523 | – | 0.0696 | 0.0519 | – | 0.0861 | – | – | 0.0629 | 0.0772 | 0.0611 | – | –
25 | P40Q | 0.0721 | 0.0644 | 0.0568 | – | 0.0757 | 0.054 | 0.0733 | – | 0.0691 | 0.0556 | 0.0633 | – | – | 0.0613 | 0.0636 | – | – | –
26 | Q151T | 0.0701 | 0.0722 | 0.0788 | 0.0511 | – | 0.0551 | 0.0847 | 0.0606 | 0.0779 | 0.056 | 0.0621 | – | 0.075 | 0.0609 | 0.0702 | 0.0656 | 0.0629 | –
27 | Q151N | 0.0544 | 0.0617 | 0.054 | 0.0608 | – | 0.0554 | 0.0675 | – | 0.06 | – | 0.0609 | – | 0.0578 | – | 0.0474 | 0.0575 | 0.05 | 0.061
28 | G63L | 0.082 | 0.0835 | 0.0584 | 0.0372 | – | 0.0525 | 0.063 | – | 0.057 | – | – | – | 0.0519 | 0.0557 | 0.0553 | 0.0551 | 0.0589 | 0.0607
29 | K100Y | 0.0487 | 0.0501 | 0.0893 | – | – | 0.0629 | – | 0.072 | – | – | 0.0508 | 0.0389 | – | 0.0371 | – | – | – | 0.0572
